± gives the standard deviation of the averaged measurements. Over roughly 33,000 sequences, “E-score (dimensionless, -0.5 to 0.5)” has its median near -0.046; the highest 2% begin near 0.36. The list shows a part of the results.
Each sequence was assayed on T1, SpTbr T-box DNA-binding domain (GST fusion) (assay: PBM E-score of 8-mer (E-score (dimensionless, -0.5 to 0.5)); Tbr is Tbrain of the sea star Patiria miniata (Pm) or the sea urchin Strongylocentrotus purpuratus (Sp); higher = stronger binding preference; most listed sequences are background and not binding sites). Details: the construct has about 5 more residues each side.
T1 sequence: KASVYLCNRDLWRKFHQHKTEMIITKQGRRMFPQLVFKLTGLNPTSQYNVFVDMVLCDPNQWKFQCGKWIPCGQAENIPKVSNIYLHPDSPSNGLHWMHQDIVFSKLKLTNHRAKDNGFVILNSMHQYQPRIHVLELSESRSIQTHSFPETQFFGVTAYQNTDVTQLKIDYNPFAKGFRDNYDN
Procedure: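 Universal protein-binding microarray (Agilent AMADID 016060, 60-bp probes with a 35-bp variable region) incubated with 200 nM GST-fused Strongylocentrotus purpuratus Tbr T-box DNA-binding domain (residues 362-554) in PBS pH 7.5. Scored for every ungapped 8-mer (given with its reverse complement) as E-score (range -0.5 to 0.5; >0.45 counts as bound) and Z-score of median probe intensity. Two replicate arrays (datasets 1 and 2).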
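Also: protein at 200 nM in PBS on universal double-stranded arrays.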

Row | Sequence | PBM E-score of 8-mer
1 | ATTCAGAA | -0.215 ± 0.0069
2 | CGGCACTC | 0.0723 ± 0.09
3 | CCGAAGGA | -0.297 ± 0.034
4 | CACGATCC | 0.0869 ± 0.011
5 | AGGGGCCC | -0.238 ± 0.011
6 | GCACAAGC | 0.0181 ± 0.00073
7 | CTAATTAG | 0.0537 ± 0.015
8 | TGATAGCA | 0.243 ± 0.0086
9 | CTGTCCGC | -0.114 ± 0.015
10 | AAATGATA | -0.124 ± 0.082
11 | ATGTAAAT | -0.102 ± 0.023
12 | GACTTTCA | 0.0938 ± 0.012
13 | GACAACCC | 0.108 ± 0.07
14 | AGCGGATG | -0.173 ± 0.11
15 | ATACACGG | -0.0947 ± 0.0036
16 | ACCTGCGT | 0.12 ± 0.0061
17 | CGCATACG | -0.104 ± 0.077
18 | CCTTAAGG | 0.0534 ± 0.028
19 | ATCAGTCC | 0.0219 ± 0.035
20 | GGGTTGAA | -0.00971 ± 0.043
21 | CGCTAGGA | 0.0877 ± 0.053
22 | GAAGTAGC | -0.0175 ± 0.059

Row | Sequence | PBM E-score of 8-mer
23 | AACCACAT | -0.165 ± 0.013
24 | GATGGGGA | -0.0619 ± 0.011
25 | GTGGCCAA | 0.12 ± 0.022
26 | GGCCTTTA | -0.26 ± 0.032
27 | GGGAATCA | -0.00442 ± 0.0086
28 | CAAAGCCG | 0.0955 ± 0.059
29 | ACAAAAGT | -0.0136 ± 0.026
30 | TAAAGGCA | -0.185 ± 0.042
31 | AAGGGACG | -0.146 ± 0.013
32 | CGAGTAGA | -0.234 ± 0.0044
33 | ACAAAATC | 0.148 ± 0.037
34 | ACTTGATG | 0.129 ± 0.055
35 | CAGCGCCG | 0.149 ± 0.031
36 | CCCCTTCG | -0.137 ± 0.046
37 | GCACATAA | 0.282 ± 0.01
38 | CCAGGTAC | -0.149 ± 0.029
39 | AACCTGCC | -0.0535 ± 0.017
40 | CGGAGAAA | -0.0147 ± 0.059
41 | CAGCAGAC | -0.043 ± 0.056
42 | CCGTGTCC | -0.0848 ± 0.067
43 | ACGTATCA | 0.0221 ± 0.048
44 | CCAGGTAA | 0.0245 ± 0.028

Row | Sequence | PBM E-score of 8-mer
45 | AACTAATA | -0.0137 ± 0.07
46 | TAGAGTAA | -0.0928 ± 0.027
47 | AGATCAAG | -0.289 ± 0.051
48 | AAGGTTCG | -0.0755 ± 0.073
49 | GTTGGCAA | 0.275 ± 0.037
50 | TATGTGAA | 0.17 ± 0.07
51 | GCCTAACC | -0.292 ± 0.008
52 | CAAAGTCC | -0.143 ± 0.034
53 | TCCCGAAA | -0.148 ± 0.096
54 | AATCGCCA | 0.172 ± 0.044
55 | AGTGGTAT | 0.00231 ± 0.046
56 | TCAAGGAA | -0.0393 ± 0.033
57 | AAGAGTGC | 0.122 ± 0.11
58 | ACAAGTAT | 0.153 ± 0.033
59 | AATTTGGT | -0.0656 ± 0.0083
60 | ATGCTCCG | -0.0668 ± 0.061
61 | ACCACCCA | -0.121 ± 0.0061
62 | AGACTTAC | -0.168 ± 0.013
63 | AATGGATG | -0.0718 ± 0.025
64 | ACAGGTAA | 0.0693 ± 0.0017
65 | ACACAACA | 0.251 ± 0.055
66 | AATGTTTC | -0.194 ± 0.021

Row | Sequence | PBM E-score of 8-mer
67 | GTTCTGGA | -0.184 ± 0.062
68 | CTTCCCAA | 0.102 ± 0.031
69 | GATATAAC | 0.135 ± 0.066
70 | GTGGGGGA | 0.163 ± 0.1
71 | ATCACCCG | 0.12 ± 0.057
72 | CGATTGGC | 0.0154 ± 0.064
73 | CTCGTCCC | -0.27 ± 0.048
74 | CTCCAGCC | -0.22 ± 0.077
75 | ATTATTTG | -0.0481 ± 0.057
76 | ACCTTTCG | 0.218 ± 0.035
77 | GAGTCCGA | -0.197 ± 0.018
78 | GCCTAAGA | -0.128 ± 0.039
79 | GTGACTAA | 0.132 ± 0.027
80 | ACCCACGA | 0.0353 ± 0.086
81 | GAGGCTGA | -0.088 ± 0.064
82 | ATATCTCA | 0.0496 ± 0.054
83 | GGCGAGTA | -0.0549 ± 0.0083
84 | TACGAGTA | -0.0745 ± 0.028
85 | AAGTAAGC | 0.0285 ± 0.0043
86 | CCGAGGTC | -0.056 ± 0.0086
